Test results taken from the antibiotic and cytotoxicity screens of Wong et al. (2023).
The other results are listed elsewhere or left out.

test system: S. aureus RN4220; assay: growth inhibition call (relative growth <= 0.2); conditions: 50 µM

| Structure (SMILES) | growth inhibition call |
| --- | --- |
| C[C@@H]1CCCCO[C@H](CN(C)S(=O)(=O)c2cn(C)cn2)[C@H](C)CN([C@@H](C)CO)C(=O)c2cc(NS(=O)(=O)c3ccccc3)ccc2O1 | inactive |
| C[C@H]1CCCCO[C@H](CN(C)C(=O)Nc2ccccc2)[C@@H](C)CN([C@@H](C)CO)C(=O)c2cc(NC(=O)Nc3cccc4ccccc34)ccc2O1 | inactive |
| COc1ccc(NC(=O)N2C[C@@H](O)COC[C@H]3O[C@@H](CC(=O)NC4Cc5ccccc5C4)CC[C@@H]32)cc1 | inactive |
| COc1ccccc1CNC(=O)C[C@H]1C[C@@H]2c3cc(NC(=O)c4cccnc4)ccc3O[C@@H]2[C@H](CO)O1 | inactive |
| C[C@@H]1CCCCO[C@@H](CN(C)C(=O)Nc2ccccc2)[C@H](C)CN([C@@H](C)CO)C(=O)c2cc(NC(=O)CCC(F)(F)F)ccc2O1 | inactive |
| Cc1noc(C)c1NC(=O)Nc1ccc2c(c1)C(=O)N([C@H](C)CO)C[C@H](C)[C@@H](CN(C)C(=O)Nc1ccccc1)OCCCC[C@H](C)O2 | inactive |
| C[C@@H]1CN([C@@H](C)CO)C(=O)c2cc(NS(=O)(=O)c3cn(C)cn3)ccc2O[C@@H](C)CCCCO[C@H]1CN(C)C(=O)CCCN(C)C | inactive |
| CO[C@@H]1CN(C)C(=O)c2cc(NC(=O)c3ccc(Oc4ccccc4)cc3)ccc2OC[C@@H](C)N(C(C)=O)C[C@H]1C | inactive |
| C[C@@H]1CN([C@@H](C)CO)C(=O)Cc2cc(NS(=O)(=O)c3ccccc3)ccc2O[C@@H]1CN(C)S(=O)(=O)c1ccc(F)cc1 | inactive |
| CN(C)CC(=O)N1[C@@H](CO)[C@H](c2ccc(C3=CCCC3)cc2)C12CN(S(=O)(=O)Cc1ccccc1)C2 | inactive |
| C[C@H](CO)N1C[C@H](C)[C@@H](CN(C)Cc2ccc3c(c2)OCO3)Oc2ncc(Br)cc2C1=O | inactive |
| C[C@H](CO)N1C[C@H](C)[C@@H](CN(C)S(=O)(=O)c2ccc(F)cc2)Oc2ccc(NC(=O)C3CC3)cc2CC1=O | inactive |
| O=C(O)C1(c2ccccc2)CCCC1 | inactive |
| C[C@@H]1CN([C@H](C)CO)C(=O)c2cc(NC(=O)CCCN(C)C)ccc2O[C@@H]1CN(C)S(=O)(=O)c1cn(C)cn1 | inactive |
| CN(CC(=O)O)C(=N)N | inactive |
| C[C@@H]1CN([C@H](C)CO)C(=O)c2cc(NC(=O)C3CCCCC3)ccc2O[C@@H](C)CCCCO[C@H]1CN(C)Cc1ccc(C(=O)O)cc1 | inactive |
| C[C@H]1CN([C@@H](C)CO)C(=O)c2c(c3ccccc3n2C)-c2ccccc2CO[C@@H]1CN(C)C(=O)Nc1ccc(F)cc1 | inactive |
| C[C@@H]1CCCCO[C@@H](CN(C)S(C)(=O)=O)[C@@H](C)CN([C@H](C)CO)C(=O)c2cc(NS(=O)(=O)c3cn(C)cn3)ccc2O1 | inactive |
| N[C@@H](CC(=O)N1CCn2c(nnc2C(F)(F)F)C1)Cc1[nH]nc2c(F)c(F)ccc12 | inactive |
| CCN(CC)CCCC(C)Nc1ccnc2cc(Cl)ccc12.O=P(O)(O)O.O=P(O)(O)O (stereo not given) | inactive |

| Structure (SMILES) | growth inhibition call |
| --- | --- |
| C[C@@H]1CCCCO[C@H](CN(C)CC2CCCCC2)[C@H](C)CN([C@H](C)CO)C(=O)c2cc(NC(=O)Nc3ccc4c(c3)OCO4)ccc2O1 | inactive |
| CCC(=O)N[C@H]1CC[C@H](CC(=O)OC)O[C@H]1CO | inactive |
| C[C@H](CO)N1C[C@H](C)[C@@H](CN(C)C(=O)Nc2ccc3c(c2)OCCO3)OCc2cnnn2CCCC1=O | inactive |
| COc1ccc(NC(=O)Nc2cccc3c2O[C@@H](CN(C)S(=O)(=O)c2cn(C)cn2)[C@H](C)CN([C@@H](C)CO)C3=O)cc1 | inactive |
| C[C@@H]1CN([C@H](C)CO)S(=O)(=O)c2ccc(-c3ccncc3)cc2O[C@H]1CN(C)Cc1ccc(Oc2ccccc2)cc1 | inactive |
| CO[C@H]1CN(C)C(=O)c2ccc(NS(=O)(=O)c3ccccc3C)cc2OC[C@@H](C)N(S(C)(=O)=O)C[C@@H]1C | inactive |
| Cc1ccc(S(=O)(=O)Nc2ccc3c(c2)C(=O)N([C@@H](C)CO)C[C@@H](C)[C@@H](CN(C)S(=O)(=O)c2cn(C)cn2)O3)cc1 | inactive |
| Cc1ccc(S(=O)(=O)N2C[C@@H](O)COC[C@H]3O[C@H](CC(=O)NCCN4CCCCC4)CC[C@@H]32)cc1 | inactive |
| O=C1CNC(=O)CN1 | inactive |
| Cc1ccc(S(=O)(=O)N(C)C[C@@H]2Oc3ccc(NC(=O)Nc4cccc5ccccc45)cc3C(=O)N([C@@H](C)CO)C[C@H]2C)cc1 | inactive |
| C[C@@H]1CN([C@@H](C)CO)C(=O)c2cc(NC(=O)Nc3ccc(C(F)(F)F)cc3)ccc2O[C@H]1CN(C)CC1CCCCC1 | inactive |
| CC(C)NC(=O)N[C@H]1C=C[C@H](CC(=O)NCCCN(C)C)O[C@H]1CO | inactive |
| C[C@@H]1CN([C@H](C)CO)C(=O)c2cccc(NC(=O)C3CC3)c2O[C@@H]1CN(C)S(=O)(=O)c1ccccc1 | inactive |
| O=C1CN(N=Cc2ccc([N+](=O)[O-])o2)C(=O)N1 | active |
| COC(=O)[C@H](Cc1c[nH]c2ccccc12)NC(=O)[C@H](CCCCCC(=O)[C@@H](C)O)NC(=O)OC(C)(C)C | inactive |
| Cc1ccc(S(=O)(=O)N(C)C[C@H]2OCCCC[C@@H](C)Oc3ccc(NC(=O)CCC(F)(F)F)cc3C(=O)N([C@@H](C)CO)C[C@@H]2C)cc1 | inactive |
| O=C(C[C@H]1C[C@H]2c3cc(NC(=O)C4CCOCC4)ccc3O[C@H]2[C@@H](CO)O1)NCCN1CCCCC1 | inactive |
| OCC(O)C(O)C(O)C(O)C(O)CO (stereo not given) | inactive |
| NCCCC[C@@H]1NC(=O)[C@@H](Cc2c[nH]c3ccccc23)NC(=O)[C@H](c2ccccc2)NC(=O)[C@@H]2C[C@@H](OC(=O)NCCN)CN2C(=O)[C@H](Cc2ccccc2)NC(=O)[C@H](Cc2ccc(OCc3ccccc3)cc2)NC1=O | inactive |
| C[C@@H](O)C#Cc1ccc2c(c1)O[C@@H](CN(C)C(=O)C1CCCCC1)[C@@H](C)CN([C@@H](C)CO)S2(=O)=O | inactive |
